# This list was built around the results that the source calls inconclusive (neither active nor inactive); the mix of calls is not that of the screen. A call without a number means that no potency is given here. For some assays here: Potencies of inconclusive entries are doubtful fits and often do not repeat. The source holds several records for some structures; these can differ, active in one and inactive in another. Activity calls are given as the source filed them. Calls follow the shape of the dose curve; as a rule, active = well fitted curve in the direction sought with a large enough effect; inconclusive = small, poorly fitted or top-dose-only effect, or another doubt; inactive = no such curve, though single readings can be large; an effect the other way counts as inactive or inconclusive.
# How the values were obtained:
# MKL-2 = assay: qHTS assay to identify novel small-molecules to repurpose for Merkel cell carcinoma treatment (AID 1296009); conditions: MCC and control cell lines, CellTiter-Glo viability, 72 h; series mostly up to 46 µM; also: nearly all actives have a fitted effect of over 60% in size
# How it was run: (§1)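 Dose-response viability screen; 72 hr exposure at 37 degree celsius; CellTiter-Glo added, 10 min room temperature, luminescence read; RLUs scaled between no-cell and DMSO wells.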
# [1] = Drug repurposing screens with cells derived from glioblastoma tumor samples (AID 1345199); conditions: GBM patient neurospheres viability, ATP luminescence, 48 h; Potency: tumour line A unless noted; activity, negative = cell killing: at 46 µM (top of the series), tumour line A unless noted; also: nearly all actives have a fitted effect of over 40% in size
# How it was run: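 Primary testing used CD133+ neurospheres from four GBM patients, seven concentrations, 48 h exposure and ATP-based viability; confirmation added three slower-growing patient lines.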
# UISO = assay: qHTS assay to identify novel small-molecules to repurpose for Merkel cell carcinoma treatment (AID 1296009); conditions: MCC and control cell lines, CellTiter-Glo viability, 72 h; series mostly up to 46 µM; also: nearly all actives have a fitted effect of over 60% in size
# How it was run: as §1
# CAOV3 = assay: Primary qHTS to identify gynecologic anti-cancer compounds using libraries of approved drugs and bioactive compounds (AID 1345084); conditions: Gynecologic cancer cell panel viability, ATPlite luminescence, 48 h; series mostly up to 57.5 µM; also: nearly all actives have a fitted effect of over 55% in size
# How it was run: (§2)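 In this quantitative HTS, cell killing is estimated from loss of ATP-dependent luciferase light. Cells see five compound concentrations over a 48 h exposure.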
# MCC-26 = assay: qHTS assay to identify novel small-molecules to repurpose for Merkel cell carcinoma treatment (AID 1296009); conditions: MCC and control cell lines, CellTiter-Glo viability, 72 h; series mostly up to 46 µM; also: nearly all actives have a fitted effect of over 60% in size
# How it was run: as §1
# MCC-13 = assay: as above; conditions: MCC and control cell lines, CellTiter-Glo viability, 72 h; series mostly up to 46 µM
# How it was run: as §1
# C33A = assay: Primary qHTS to identify gynecologic anti-cancer compounds using libraries of approved drugs and bioactive compounds (AID 1345084); conditions: Gynecologic cancer cell panel viability, ATPlite luminescence, 48 h; series mostly up to 57.5 µM; also: nearly all actives have a fitted effect of over 55% in size
# How it was run: as §2
# WaGa = assay: qHTS assay to identify novel small-molecules to repurpose for Merkel cell carcinoma treatment (AID 1296009); conditions: MCC and control cell lines, CellTiter-Glo viability, 72 h; series mostly up to 46 µM; also: nearly all actives have a fitted effect of over 60% in size
# How it was run: as §1
# MKL-1 = assay: as above; conditions: MCC and control cell lines, CellTiter-Glo viability, 72 h; series mostly up to 46 µM
# How it was run: as §1
# W2 = assay: qHTS profiling for inhibitors of Plasmodium falciparum proliferation (AID 504749); also: nearly all actives have a fitted effect of over 60% in size; conditions: P. falciparum in erythrocytes, SYBR Green DNA, 72 h; series mostly up to 28.7 µM
# How it was run: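 Each compound contacts P. falciparum-infected red blood cells for 72 h at 37 C; lysis buffer (Tris, EDTA, saponin, Triton X, SYBR Green I) is added and fluorescence measured next morning; values normalized to controls.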
# [2] = qHTS assay to identify inhibitors of the type 1 interferon - major histocompatibility complex class I in skeletal muscle: Counter screen cell viability and HiBit confirmation (AID 1347412); conditions: iHSKM muscle cells + IFN-b, HiBiT or CellTiter-Glo, 24 h; also: nearly all actives have a fitted effect of over 60% in size
# How it was run: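 After 24 h with human IFN-beta (4 ng/ml) and compound titrations (top 46 uM final, 1:3, 12 points), HLA-B HiBit myoblasts were lysed for either Nano-Glo HiBiT luminescence or CellTiter Glo viability on paired plates.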
# HeLa = assay: Primary qHTS to identify gynecologic anti-cancer compounds using libraries of approved drugs and bioactive compounds (AID 1345084); conditions: Gynecologic cancer cell panel viability, ATPlite luminescence, 48 h; series mostly up to 57.5 µM; also: nearly all actives have a fitted effect of over 55% in size
# How it was run: as §2
# Es-2 = assay: as above; conditions: Gynecologic cancer cell panel viability, ATPlite luminescence, 48 h; series mostly up to 57.5 µM
# How it was run: as §2
# CASKI = assay: as above; conditions: Gynecologic cancer cell panel viability, ATPlite luminescence, 48 h; activity change, negative = cytotoxicity: at 57.5 µM (top of the series)
# How it was run: as §2
# Potency is read from the fitted curve at half-maximal effect; tags tell the direction and shape of the fitted curve.
structure (smiles),measurement,setting,value
CN1CCN(C(=O)C2CCCCC2)CC1,Potency,MKL-2,inactive
same,Potency,[1],"inconclusive: 35.5 µM [inhibitor, single point]"
COc1cc(F)c(C(C)C)cc1-c1ccc(C(F)(F)F)cc1CN1C(=O)O[C@H](c2cc(C(F)(F)F)cc(C(F)(F)F)c2)[C@@H]1C,Potency,MKL-2,inactive
same,Potency,UISO,inactive
COc1ccc(OC)c(C(O)CNC(=O)CN)c1 (stereo unspecified),Potency,MKL-2,inactive
CC1(C)O[C@@H]2C[C@H]3[C@@H]4C[C@H](F)C5=CC(=O)C=C[C@]5(C)[C@H]4[C@@H](O)C[C@]3(C)[C@]2(C(=O)CO)O1,Potency,MKL-2,inactive
same,Potency,CAOV3,inactive
COC(=O)[C@@H]1[C@H]2C[C@H]3c4[nH]c5ccccc5c4CCN3C[C@@H]2CC[C@@H]1O,Potency,MCC-26,inactive
same,Potency,MKL-2,inactive
O=C1N=C(O)CN1/N=C/c1ccc(-c2ccc([N+](=O)[O-])cc2)o1,Potency,MCC-13,inactive
same,Potency,[1],inactive
same,Potency,C33A,inactive
same,Potency,CAOV3,inactive
CCCCCCCCCCCCCCCCCC(=O)OCC(O)CO (stereo unspecified),Potency,MKL-2,inactive
same,Potency,[1],"inconclusive: 6.31 µM [inhibitor, full curve, poor fit]"
CC(=O)OC[C@@H]1O[C@@H](n2ccc(=O)[nH]c2=O)[C@H](OC(C)=O)[C@H]1OC(C)=O,Potency,MKL-2,"inconclusive: 0.264 µM [inhibitor, full curve]"
same,Potency,WaGa,inactive
CCCN1CCCC[C@H]1C(=O)Nc1c(C)cccc1C,Potency,MKL-1,inactive
same,Potency,UISO,inactive
same,Potency,[1],active: 35.5 µM
Cc1ccc(C(C)C)cc2c(C)ccc1-2,Potency,W2,"inconclusive: 7.57 µM [inhibitor, partial curve]"
same,Potency,MKL-1,inactive
same,Potency,[1],"inconclusive: 17.8 µM [inhibitor, partial curve]"
CNNCc1ccc(C(=O)NC(C)C)cc1,Potency,W2,"inconclusive: 10.7 µM [inhibitor, partial curve, poor fit]"
same,Potency,UISO,inactive
COC(=O)c1ccc2c(C(=Nc3ccc(N(C)C(=O)CN4CCN(C)CC4)cc3)c3ccccc3)c(O)[nH]c2c1,Potency,[2]; HiBiT,"inconclusive: 7.87 µM [inhibitor, partial curve]"
same,Potency,[2]; Viability,"inconclusive: 35.2 µM [cytotoxic, single point]"
same,Potency,CAOV3,"inconclusive: 7.08 µM [cytotoxic, single point]"
same,Potency,HeLa,"inconclusive: 3.16 µM [cytotoxic, partial curve, poor fit]"
CO[C@@]12[C@H](COC(N)=O)C3=C(C(=O)C(C)=C(N)C3=O)N1C[C@@H]1N[C@@H]12,Potency,CAOV3,active: 3.55 µM
same,Potency,HeLa,"inconclusive: 0.355 µM [cytotoxic, full curve, poor fit]"
CCC(C)(C)C(=O)O[C@H]1C[C@@H](C)C=C2C=C[C@H](C)[C@H](CC[C@@H]3C[C@@H](O)CC(=O)O3)[C@H]21,Potency,Es-2,"inconclusive: 25.1 µM [cytotoxic, single point]"
same,Potency,HeLa,"inconclusive: 39.8 µM [cytotoxic, single point]"
NC[C@H](O)c1ccc(O)c(O)c1,Potency,CASKI,inactive
same,Potency,HeLa,inactive
NC(N)=NC(N)=NCCc1ccccc1,Potency,W2,inconclusive: 0.019 µM [activator]
same,Potency,[1],inactive
same,Potency,C33A,"inconclusive: 22.4 µM [cytotoxic, partial curve, poor fit]"
same,Potency,CASKI,"inconclusive: 17.8 µM [cytotoxic, partial curve, poor fit]"
same,Potency,Es-2,"inconclusive: 20 µM [cytotoxic, partial curve, poor fit]"
C[C@]12CCC(=O)C=C1CC[C@H]1[C@@H]3CC[C@](O)(C(=O)CO)[C@@]3(C)C[C@H](O)[C@@]12F,Potency,UISO,inactive
same,Potency,[2]; HiBiT,"inconclusive: 0.0249 µM [inhibitor, full curve, poor fit]"
same,"activity change, negative = inhibition","[2]; Viability, at 45.9 µM (top of the series)",inactive: 16%
CCC(=O)c1c(O)cc(O)cc1O,Potency,[1],"inconclusive: 25.1 µM [inhibitor, partial curve]"
same,Potency,Es-2,inactive
Fc1cc(-c2cccc3ncc(-c4cnn(C5CCNCC5)c4)nc23)cc(F)c1CN1CCOCC1,Potency,[2]; Viability,"inconclusive: 39.4 µM [cytotoxic, single point]"
same,Potency,C33A,"inconclusive: 39.8 µM [cytotoxic, single point]"
same,Potency,CAOV3,active: 31.6 µM
same,Potency,CASKI,"inconclusive: 28.2 µM [cytotoxic, single point]"
same,Potency,Es-2,"inconclusive: 39.8 µM [cytotoxic, single point]"
Cc1cc2nc3c(=O)[nH]c(=O)nc-3n(C[C@H](O)[C@H](O)[C@H](O)CO)c2cc1C,Potency,CASKI,inactive
NC(=O)c1ncn([C@@H]2O[C@H](CO)[C@@H](O)[C@H]2O)c1O,Potency,UISO,inactive
O=C1O[C@H]([C@@H](O)CO)C(O)=C1O,"activity, negative = cell killing",[1],inconclusive: -33% [inhibitor]
same,Potency,Es-2,inactive
O=C1NS(=O)(=O)c2ccccc21,Potency,CASKI,inactive
same,Potency,Es-2,inactive

# Reference: PubChem BioAssay (NCATS)
